The subject of one data set is RPMI-8229. Nature of the data set: Cytotoxicity in vitro (CellTiter-Glo viability), RPMI-8229. As to conditions: RPMI-8229 (MM), 72 hours. The format is cell-based, human. For orientation: In ATP-based viability assays light output follows the ATP content of the culture.
The next data set deals with OvCar4. Nature of the data set: Cytotoxicity in vitro (CellTiter-Glo viability), OvCar4. In kind it is cell-based, human. As to conditions: OvCar4 (Ovarian), 72 hours.
A further data set deals with MDA-MB-468. In words: Cytotoxicity in vitro (CellTiter-Glo viability), MDA-MB-468. Particulars: read-out: EC50 (nM), cytotoxicity in vitro; MDA-MB-468 (TNBC), 96 hours (values marked *).
The test system of another data set is DLBCL-GCB PDX. In words: DLBCL-GCB PDX mouse model. In kind it is in vivo. As to conditions: 24 days. As to the method:
Germinal center B-cell like diffuse large B-cell lymphoma (DLBCL-GCB) cells were engrafted subcutaneously into mice, and the engrafted mice were randomized into five groups, 6 mice/group. The groups were vehicle control, 10 mg/kg Ab1, 50 mg/kg venetoclax, 10 mg/kg Ab1 plus 50 mg/kg venetoclax, and 5 mg/kg ADC-A. Ab1 and ADC-A were administered IV, qw and venetoclax was administered PO qd.

For the next data set, the system named is ES2. In words: Cytotoxicity in vitro (CellTiter-Glo viability), ES2. The format is cell-based, human. Particulars: ES2 (Ovarian), 72 hours.
The next data set has as its system OPM2. In words: Cytotoxicity in vitro (CellTiter-Glo viability), OPM2. The format is cell-based, human. Particulars: OPM2 (MM), 72 hours.
The test system of the next data set is WSU-DLCL. In words: Cytotoxicity in vitro (CellTiter-Glo viability), WSU-DLCL. The format is cell-based, human. Particulars: WSU-DLCL (DLBCL), 72 hours.
Data set [1] concerns RS9373 cells (patient-derived xenograft). Nature of the data set: ROR1-positive Richter's syndrome PDX mouse model (chemotherapy-resistant). The format is in vivo. As to the method: NSG mice were subcutaneously injected in both flank areas with RS9373 cells (patient-derived xenograft or PDX) in a cell suspension in matrigel. When palpable tumors were observed (at approximately 50 mm^3), the animals were randomized into three groups, 4 mice/group. The treatment groups were vehicle control, 2.5 mg/kg ADC-A IV q4d, and 5 mg/kg ADC-A IV q4d. The mice received 3 total treatments and tumors were harvested 24 hours after the last treatment. Mean tumor growth inhibition (TGI) was calculated utilizing the following formula: […]
With most tumor types, heterogenous ROR1 expression is observed at the intra-tumoral level.

The next data set deals with Hs578T. Nature of the data set: Cytotoxicity in vitro (CellTiter-Glo viability), Hs578T. The format is cell-based, human. Particulars: Hs578T (TNBC), 72 hours.
In the next data set the test system is SAOS. In words: Cytotoxicity in vitro (CellTiter-Glo viability), SAOS. The format is cell-based, human. Particulars: SAOS (OS), 72 hours.
For the next data set, the system named is A549. Nature of the data set: Cytotoxicity in vitro (CellTiter-Glo viability), A549. As to conditions: A549 (NSCLC), 72 hours. The format is cell-based, human.
The next data set has as its system Jeko-1 MCL xenograft. In words: Jeko-1 MCL xenograft mouse model (study 2). In kind it is in vivo. Particulars: 5 mg/kg IV Q4D, 3 weeks. The procedure:
Jeko-1 (MCL) cells were engrafted subcutaneously into mice, and the engrafted mice were randomized into five groups, 9 mice/group. […] The mice were dosed IV q4d.

Entries after “also recorded” stand apart in the source; their conditions may differ.

The source of these data is patent USRE50631E1, “ROR1 antibody immunoconjugates” (VelosBio Inc., priority 2017, dated 2025).

B1: ADC-A: Ab1 conjugated via MAL (mc)-VC-PAB linker to MMAE (conjugate)
heavy: QVQLQESGPGLVKPSQTLSLTCTVSGYAFTAYNIHWVRQAPGQGLEWMGSFDPYDGGSSYNQKFKDRLTISKDTSKNQVVLTMTNMDPVDTATYYCARGWYYFDYWGHGTLVTVSS[skipping human IgG1 constant region]
light: DIVMTQTPLSLPVTPGEPASISCRASKSISKYLAWYQQKPGQAPRLLIYSGSTLQSGIPPRFSGSGYGTDFTLTINNIESEDAAYYFCQQHDESPYTFGEGTKVEIKRTVAAPSVFIFPPSDEQLKSGTASVVCLLNNFYPREAKVQWKVDNALQSGNSQESVTEQDSKDSTYSLSSTLTLSKADYEKHKVYACEVTHQGLSSPVTKSFNRGEC
For B1, the EC50 stood at 174 nM in the data set with RPMI-8229; 283 nM in the data set on OvCar4; 21.7 nM with MDA-MB-468; 170 nM in the data set with ES2; 123 nM with OPM2; 68 nM in the data set with WSU-DLCL. The EC50 with Hs578T came out at 22.9 nM; in the data set on SAOS, 26.3 nM; in the data set with A549, 53.4 nM. Besides, the tumor regression result in the data set on DLBCL-GCB PDX (5 mg/kg ADC-A IV qw) is recorded as “regression (104%) with”. The tumor response result in the data set on DLBCL-GCB PDX (ADC-A 5 mg/kg IV qw, Ab1 10 mg/kg IV qw, venetoclax 50 mg/kg PO qd) was “complete tumor regression in all animals treated”; in data set [1] (5 mg/kg ADC-A, 20-30% of intra-tumoral cells ROR1-positive) it was “complete and sustained regressions were observed in all tumors; also recorded: complete and sustained tumor regressions were observed”. Further, the “mean TGI” value was 78% at 2.5 mg/kg; in [1] (2.5 mg/kg IV q4d) and 90% at 5 mg/kg in [1] (5 mg/kg IV q4d). Further, the tumor growth entry in the data set with Jeko-1 MCL xenograft is reported as “caused tumor regression”.
